Experimental data reported in the supplement of paper PMC3334620.
Whole data set: some 33,000 sequences, median “E-score (-0.5 to 0.5)” near -0.032, cut for the highest 2% near 0.36. The list shows a part of the results.

biological target: T1, Sko1 (UniProt Q02100); experiment: PBM E-score (8-mer binding enrichment) (E-score (-0.5 to 0.5)); higher = stronger / more preferred TF binding; most listed sequences are background and not binding sites; conditions: protein concentration: 200 nM; construct: GST-full length
T1 sequence: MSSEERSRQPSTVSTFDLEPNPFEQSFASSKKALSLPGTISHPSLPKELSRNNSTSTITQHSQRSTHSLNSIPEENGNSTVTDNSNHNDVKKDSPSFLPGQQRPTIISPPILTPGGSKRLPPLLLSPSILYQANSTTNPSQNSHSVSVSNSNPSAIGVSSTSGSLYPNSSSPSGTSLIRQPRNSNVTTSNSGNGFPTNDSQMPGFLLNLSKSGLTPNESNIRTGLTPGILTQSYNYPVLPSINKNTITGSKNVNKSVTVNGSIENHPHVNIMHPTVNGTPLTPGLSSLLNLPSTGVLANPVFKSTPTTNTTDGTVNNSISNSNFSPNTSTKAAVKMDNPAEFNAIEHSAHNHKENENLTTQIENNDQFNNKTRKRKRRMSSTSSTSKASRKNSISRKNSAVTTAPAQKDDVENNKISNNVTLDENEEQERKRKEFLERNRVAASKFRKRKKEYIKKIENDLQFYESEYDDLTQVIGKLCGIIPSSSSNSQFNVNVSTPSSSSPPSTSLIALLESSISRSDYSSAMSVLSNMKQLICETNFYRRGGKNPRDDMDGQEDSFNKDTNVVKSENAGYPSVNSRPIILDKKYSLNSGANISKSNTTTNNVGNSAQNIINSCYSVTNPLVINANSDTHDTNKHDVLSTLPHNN
In short: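 Detection of bound protein used fluorescent anti-GST, with scans normalised by masliner. The proteins were GST-tagged yeast transcription factors applied at about 100-200 nM to universal all-10-mer Agilent arrays made double-stranded by primer extension. Each ungapped eight-base word, pooled with its reverse complement, was scored with an E-score from the Universal PBM Analysis Suite.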

Sequence	PBM E-score
CATGCGGG	-0.212
AGGCGGGA	-0.225
CAAGCGTC	0.0646
ATGGCTAC	0.105
GAGACATC	-0.225
GACTACTA	0.0848
CTATAAGC	-0.0749
AAGAAAAT	0.292
CAGGTACG	0.0561
CGCAATCA	0.217
GCTGCGTA	0.308
GCGCGGAA	-0.103
CAGGTGTA	-0.0716
GAAGGGCC	-0.194
GTCCAATA	0.0512
GAGACGCA	0.0284
CAGTGAAC	0.0558
GTAACCAA	0.132
ACTTTCAA	0.0541
GATAAGAC	-0.0439
GACGTAAA	0.456
GCCTGCGC	-0.32
ACACCGGA	-0.136
GAGGAAAC	-0.213
CAGTGGGG	-0.218

Sequence	PBM E-score
ACCAGGCC	0.103
TAAATCGA	0.214
CCCGCTAA	-0.328
AACAGATA	0.169
ACCTATAA	0.0683
ATCGAGTC	-0.102
CTGCTGTC	-0.247
GACTTACA	0.103
CACTAGTA	0.0491
GCGGTGCC	-0.242
GATGCCTA	-0.0964
GATGCCAC	-0.0244
AGTTTCGC	-0.0524
ACCTTAAC	0.0471
GGTGTATA	-0.239
AACCGTCC	-0.321
ACCAGCCC	-0.239
ATTAAGAG	-0.0418
ATCCGACA	-0.183
CACCACAC	-0.103
CGTGACAG	0.029
CCGAAGCA	-0.0738
CAACATTG	0.11
AGCGCGGG	0.0352
CATGTAGA	0.164

Sequence	PBM E-score
GCTGGATA	-0.13
ATCTGCAC	-0.125
AGACGATG	0.0602
GACTTTCC	-0.0378
CGCGGTGC	-0.294
AGGGGAGG	-0.144
ATCCACAT	0.111
AAACAGTG	0.0703
CAACTTCG	-0.00172
AGCGTCCA	-0.0171
AATATTTG	0.191
CTTCCTGA	0.00984
CGATTGAC	0.235
ATACGGGA	-0.14
ACCCGACA	-0.102
CCTATATA	0.155
CAAGCTAA	-0.029
ACGCCAGA	-0.0139
AGACTCCG	-0.0865
CATATCAG	-0.116
GATTGCGA	0.102
CGGTTGAC	0.0603
AGATTCTG	-0.181
CGTAAAGA	0.35
CTGCTAGA	-0.0391

Sequence	PBM E-score
CAGACCCA	-0.0318
GCGTCCTA	-0.133
CCCGGCCG	-0.307
GGGTACCC	-0.158
CAAAGCCA	0.00031
CATACATC	0.293
AATACTGG	-0.0515
CCCAGCAC	-0.263
AATTACAA	0.152
AGATTTAT	0.107
AACATAAA	0.132
GGGGACGA	-0.125
ACAACACG	0.23
TTAGGCAA	0.0203
CCATACGG	0.0128
ACTAGAGG	-0.18
ATCACTCA	0.0754
GGGAGCGA	-0.241
GATCTAAA	0.043
GATACTCA	-0.0611
GACTCGCC	-0.323
CCGAGTGA	-0.239
GGGATGCA	-0.232
ACAATCTA	0.0759
GCTTAGCC	-0.313

Sequence	PBM E-score
CATCTGGG	-0.114
CGCACACC	0.0394
ACGGCTTA	-0.0107
ATCTACCG	0.0589
TGACTGAA	-0.122
AACTAGAG	-0.0318
AGACACGA	0.136
GCGGCAGC	-0.333
TAACTATA	0.11
GCCCAGGA	-0.21
AATCGAAT	0.0932
GACTAGCA	-0.00763
ACGTAGGA	0.446
CTTTAGAA	-0.0195
ACGCTGTA	0.17
CTATAATC	0.131
CTGCCGCA	-0.276
AATGCCGA	-0.126
CACCCGAA	-0.0464
GTCGTCGA	0.0382
AGCGCCGC	-0.199
AGCAGAGA	-0.235
GGCGAAAA	0.0196
ACGAAATG	0.272
GAAGTCCA	-0.287

Sequence	PBM E-score
GCATTTAA	0.148
CCATCGCG	0.0763
CCGAGCAC	-0.0702
AGAAGGCA	-0.0924
AGTACGCC	0.0522
ACGGTCTC	-0.297
CACATCAG	-0.0833
GGGTAGTA	-0.129
ATTAGTCG	0.0159
ACTCCCTA	0.264
CGGCTTAG	-0.161
CCTAACAC	0.145
AAACTTCT	0.105
GGCAAGCC	-0.202
AAGGACAA	-0.0445
AATTTGTG	0.133
AACGCACT	0.236
CTGGGACA	-0.266
CCGGCTAA	-0.105
GCGTATTA	0.333
GTAGCGCA	-0.0234
TAGCGCAA	0.125
CGAGTTAG	0.094
GACAGGGA	-0.123
AAAGCGTT	-0.0425

Sequence	PBM E-score
CCCGTAGG	-0.194
GGCACCCA	-0.197
CTACACAA	0.0981
ATAGCCGG	-0.15
CCTCCATA	-0.116
CGCTCCCA	-0.361
CCTAACTA	0.0349
CAAGAGTC	-0.214
ACATTCTG	0.00438
GTTTGTAA	0.0307
CCCAGATC	-0.289
ATGGAAAC	-0.117
CACTGGGG	-0.239
CAGACAAA	0.0488
ATACCCGG	-0.166
GCATAACC	-0.169
GCGTCGTA	0.234
CCTGCAGA	-0.0607
CACAATGC	-0.131
AACCGCCC	-0.295
ATGAATCG	0.084
GAAAGCAC	-0.0183
